Results from publication PMC2685083 (Nucleic Acids Research, 2009).

Columns and labels:
SEC = target: the molecule itself; test: SEC
[1] = target: α catalytic subunit of Pol III (E. coli, UniProt P10443); test: SPR

Kd [1] | koff [1] | kon [1] | Binder | stoichiometry N (SEC)
 |  |  | β^C clamp, untagged homodimer (β lacking its C-terminal five residues M362-L366) (domain or fragment) not shown | 2
1780 nM | 0.00423 s⁻¹ | 2380 M⁻¹ s⁻¹ | his6-tagged β^C homodimer (domain or fragment) not shown | 
